Test results as given in the supplement of paper PMC4967469.

Legend:
[1] = compound: O=C(/C=C/c1cccnc1)NCCCCC1CCN(C(=O)c2ccccc2)CC1 [FK866]; assay: Viability of human cancer cell lines after 72 h of drug (GDSC screen); conditions: top dose 1 µM; top dose inferred
Experimental: (§1)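 Human cancer cell lines in 384-well plates, medium with 10% serum, drug for 72 h over a 256-fold dose range (nine 2-fold or five 4-fold steps up to the top dose). Adherent lines were fixed and stained with the nucleic acid dye Syto60, suspension lines read with resazurin; signal relative to control wells, capped at 0 and 100%. One two-parameter sigmoid per drug and line, fitted in a mixed model over all curves with the slope shared within a line.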

[2] = compound: Nc1[nH]nc2nnc(-c3c(-c4ccccc4)nn4ccccc34)cc12 [FR-180204]; assay: as above; conditions: top dose 20 µM; top dose inferred
Experimental: as §1

| Cell Line | AUC [1] | IC50 [1] | AUC [2] | IC50 [2] |
| --- | --- | --- | --- | --- |
| CAL-72 (osteosarcoma, adherent) | 0.468 | 50.3 nM | 0.981 | > 20000 nM |
| CAL-78 (chondrosarcoma, adherent) | 0.985 | > 1000 nM | 0.979 | > 20000 nM |
| CAL-85-1 (breast, adherent) | 0.819 | 785 nM | 0.919 | > 20000 nM |
| CAL-120 (breast, adherent) | 0.279 | 12.1 nM | 0.974 | > 20000 nM |
| CAMA-1 (breast, adherent) | 0.883 | > 1000 nM | 0.983 | > 20000 nM |
| CAS-1 (glioma, adherent) | 0.86 | > 1000 nM | 0.981 | > 20000 nM |
| CCF-STTG1 (glioma, adherent) | 0.577 | 102 nM | 0.987 | > 20000 nM |
| CCK-81 (large intestine, adherent) | 0.944 | > 1000 nM | 0.948 | > 20000 nM |
| CCRF-CEM (lymphoblastic leukaemia, suspension) | 0.052 | < 3.91 nM | 0.957 | > 20000 nM |
| CESS (acute myeloid leukaemia, suspension) | 0.045 | < 3.91 nM | 0.907 | > 20000 nM |
| CFPAC-1 (pancreas, adherent) | 0.671 | 202 nM | 0.978 | > 20000 nM |
| CGTH-W-1 (thyroid, adherent) | 0.077 | < 3.91 nM | 0.982 | > 20000 nM |
| CHL-1 (melanoma, adherent) | 0.052 | < 3.91 nM | 0.904 | > 20000 nM |
| CHP-126 (neuroblastoma, suspension) | 0.122 | < 3.91 nM | 0.926 | > 20000 nM |
| CHP-212 (neuroblastoma, adherent) | 0.08 | < 3.91 nM | 0.988 | > 20000 nM |
| CHSA0011 (chondrosarcoma, adherent) | 0.913 | > 1000 nM | 0.961 | > 20000 nM |
| CHSA0108 (chondrosarcoma, adherent) | 0.343 | 21.3 nM | 0.984 | > 20000 nM |
| CHSA8926 (chondrosarcoma, adherent) | 0.864 | > 1000 nM | 0.98 | > 20000 nM |
| CL-11 (large intestine, adherent) | 0.827 | 716 nM | 0.987 | > 20000 nM |
| CMK (acute myeloid leukaemia, suspension) | 0.033 | < 3.91 nM | 0.866 | 13400 nM |
| COLO-205 (large intestine, suspension) | 0.138 | 4.65 nM | 0.958 | > 20000 nM |
| COLO-320-HSR (large intestine, suspension) | 0.026 | < 3.91 nM | 0.985 | > 20000 nM |
| COLO-668 (small cell lung carcinoma, adherent) | 0.981 | > 1000 nM | 0.958 | > 20000 nM |
| COLO-678 (large intestine, semi-adherent) | 0.935 | > 1000 nM | 0.981 | > 20000 nM |

| Cell Line | AUC [1] | IC50 [1] | AUC [2] | IC50 [2] |
| --- | --- | --- | --- | --- |
| COLO-679 (melanoma, adherent) | 0.792 | 516 nM | 0.977 | > 20000 nM |
| COLO-680N (oesophagus, adherent) | 0.916 | > 1000 nM | 0.985 | > 20000 nM |
| COLO-684 (endometrium, suspension) | 0.249 | 10.7 nM | 0.984 | > 20000 nM |
| COLO-783 (melanoma, adherent) | 0.953 | > 1000 nM | 0.991 | > 20000 nM |
| COLO-792 (melanoma, adherent) | 0.489 | 58.5 nM | 0.984 | > 20000 nM |
| COLO-800 (melanoma, adherent) | 0.035 | < 3.91 nM | 0.985 | > 20000 nM |
| COLO-824 (breast, adherent) | 0.456 | 47.3 nM | 0.987 | > 20000 nM |
| COLO-829 (melanoma, adherent) | 0.876 | > 1000 nM | 0.961 | > 20000 nM |
| COR-L23 (large cell lung carcinoma, adherent) | 0.181 | 7.12 nM | 0.978 | > 20000 nM |
| COR-L88 (small cell lung carcinoma, adherent) | 0.241 | 9.48 nM | 0.98 | > 20000 nM |
| COR-L95 (small cell lung carcinoma, adherent) | 0.974 | > 1000 nM | 0.98 | > 20000 nM |
| COR-L105 (lung adenocarcinoma, adherent) | 0.825 | 783 nM | 0.929 | > 20000 nM |
| COR-L279 (small cell lung carcinoma, suspension) | 0.131 | 5.18 nM | 0.979 | > 20000 nM |
| COR-L321 (lung, suspension) | 0.148 | 5.05 nM | 0.97 | > 20000 nM |
| CP50-MEL-B (melanoma, adherent) | 0.149 | 5.2 nM | 0.942 | > 20000 nM |
| CP66-MEL (melanoma, adherent) | 0.835 | 787 nM | 0.976 | > 20000 nM |
| CPC-N (small cell lung carcinoma, suspension) | 0.04 | < 3.91 nM | 0.983 | > 20000 nM |
| CS1 (bone, adherent) | 0.174 | 5.58 nM | 0.981 | > 20000 nM |
| CTB-1 (B-cell lymphoma, suspension) | 0.198 | 5.43 nM | 0.979 | > 20000 nM |
| CW-2 (large intestine, adherent) | 0.727 | 292 nM | 0.974 | > 20000 nM |
| Ca9-22 (head and neck, adherent) | 0.187 | 7.94 nM | 0.948 | > 20000 nM |
| Ca-Ski (cervix, adherent) | 0.612 | 132 nM | 0.962 | > 20000 nM |
| CaR-1 (large intestine, adherent) | 0.461 | 46.5 nM | 0.976 | > 20000 nM |
| Calu-6 (lung adenocarcinoma, adherent) | 0.613 | 134 nM | 0.979 | > 20000 nM |

| Cell Line | AUC [1] | IC50 [1] | AUC [2] | IC50 [2] |
| --- | --- | --- | --- | --- |
| Caov-4 (ovary, adherent) | 0.892 | > 1000 nM | 0.98 | > 20000 nM |
| Capan-2 (pancreas, adherent) | 0.769 | 458 nM | 0.949 | > 20000 nM |
| ChaGo-K-1 (non-small cell lung carcinoma, adherent) | 0.372 | 26.2 nM | 0.978 | > 20000 nM |
| D-247MG (glioma, adherent) | 0.865 | > 1000 nM | 0.91 | > 20000 nM |
| D-263MG (glioma, adherent) | 0.043 | < 3.91 nM | 0.978 | > 20000 nM |
| D-283MED (medulloblastoma, adherent) | 0.029 | < 3.91 nM | 0.991 | > 20000 nM |
| D-336MG (glioma, adherent) | 0.912 | > 1000 nM | 0.969 | > 20000 nM |
| D-392MG (glioma, adherent) | 0.971 | > 1000 nM | 0.976 | > 20000 nM |
| D-423MG (glioma, adherent) | 0.258 | 10.6 nM | 0.933 | > 20000 nM |
| D-502MG (glioma, adherent) | 0.887 | > 1000 nM | 0.949 | > 20000 nM |
| D-542MG (glioma, adherent) | 0.743 | 368 nM | 0.984 | > 20000 nM |
| D-566MG (glioma, adherent) | 0.262 | 13.2 nM | 0.964 | > 20000 nM |
| DAN-G (pancreas, adherent) | 0.686 | 191 nM | 0.989 | > 20000 nM |
| DB (B-cell lymphoma, suspension) | 0.115 | < 3.91 nM | 0.967 | > 20000 nM |
| DBTRG-05MG (glioma, adherent) | 0.954 | > 1000 nM | 0.958 | > 20000 nM |
| DEL (lymphoid neoplasm, suspension) | 0.467 | 51.7 nM | 0.99 | > 20000 nM |
| DG-75 (Burkitt lymphoma, suspension) | 0.515 | 68.7 nM | 0.985 | > 20000 nM |
| DK-MG (glioma, adherent) | 0.891 | > 1000 nM | 0.967 | > 20000 nM |
| DMS-53 (small cell lung carcinoma, adherent) | 0.984 | > 1000 nM | 0.986 | > 20000 nM |
| DMS-79 (small cell lung carcinoma, suspension) | 0.416 | 35.3 nM | 0.986 | > 20000 nM |
| DMS-114 (small cell lung carcinoma, adherent) | 0.145 | 3.93 nM | 0.985 | > 20000 nM |
| DMS-273 (small cell lung carcinoma, adherent) | 0.126 | < 3.91 nM | 0.967 | > 20000 nM |
| DND-41 (T-cell leukaemia, suspension) | 0.023 | < 3.91 nM | 0.915 | > 20000 nM |
| DOK (head and neck, adherent) | 0.704 | 318 nM | 0.976 | > 20000 nM |

IC50 is the fitted dose that halves viability relative to control wells, and lower means more sensitive; where the fit passes the top or lowest dose, that dose stands as a limit. AUC, from the same fit, is the share of area under the viability curve across the 256-fold dose range; values near 1 show little effect. A top dose marked as inferred comes from the curve model; the source does not state it.
